Assay results published in article PMC4336329 (PLoS ONE, 2015).
Out of some 310,000 compounds screened, about 2,200 (0.71%) showed an effect of 50% or more. The effect is printed as a negative number. The list shows a part of the results.

Target: human ether-à-go-go-related gene (hERG) potassium channel (human, UniProt Q12809)
Assay: primary screen, population patch clamp on CHO cells stably expressing hERG

Chain of human ether-à-go-go-related gene (hERG) potassium channel (Q12809 whole entry, looked up): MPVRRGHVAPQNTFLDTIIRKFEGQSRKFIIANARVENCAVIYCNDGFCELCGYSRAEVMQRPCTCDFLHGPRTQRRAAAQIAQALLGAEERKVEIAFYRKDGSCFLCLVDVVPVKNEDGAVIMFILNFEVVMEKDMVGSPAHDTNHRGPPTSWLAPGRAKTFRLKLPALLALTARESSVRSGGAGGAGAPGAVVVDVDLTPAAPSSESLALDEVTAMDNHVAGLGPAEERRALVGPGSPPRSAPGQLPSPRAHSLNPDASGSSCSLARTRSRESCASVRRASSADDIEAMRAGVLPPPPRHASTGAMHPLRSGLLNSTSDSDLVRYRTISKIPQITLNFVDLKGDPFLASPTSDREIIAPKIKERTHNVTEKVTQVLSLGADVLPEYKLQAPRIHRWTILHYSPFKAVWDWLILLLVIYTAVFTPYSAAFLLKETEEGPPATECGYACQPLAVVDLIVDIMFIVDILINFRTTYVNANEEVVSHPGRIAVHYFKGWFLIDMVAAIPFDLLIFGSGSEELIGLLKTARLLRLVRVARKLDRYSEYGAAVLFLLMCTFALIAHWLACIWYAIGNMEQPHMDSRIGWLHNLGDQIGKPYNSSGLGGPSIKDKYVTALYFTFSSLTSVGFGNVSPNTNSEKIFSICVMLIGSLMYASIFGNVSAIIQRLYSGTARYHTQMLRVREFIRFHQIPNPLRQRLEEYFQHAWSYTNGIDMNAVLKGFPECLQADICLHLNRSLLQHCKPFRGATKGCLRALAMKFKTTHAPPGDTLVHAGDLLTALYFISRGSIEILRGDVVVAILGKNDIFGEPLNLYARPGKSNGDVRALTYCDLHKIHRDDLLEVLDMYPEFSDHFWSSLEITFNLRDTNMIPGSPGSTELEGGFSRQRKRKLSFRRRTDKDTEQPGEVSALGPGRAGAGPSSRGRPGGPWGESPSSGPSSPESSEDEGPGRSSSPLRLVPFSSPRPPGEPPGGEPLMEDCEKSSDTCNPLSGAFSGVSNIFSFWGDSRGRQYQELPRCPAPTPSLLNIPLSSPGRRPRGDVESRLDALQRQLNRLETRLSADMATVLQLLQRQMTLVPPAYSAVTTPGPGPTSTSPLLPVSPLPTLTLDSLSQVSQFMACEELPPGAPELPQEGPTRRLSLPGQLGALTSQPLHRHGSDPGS

| Structure (SMILES) | hERG current change (%, negative = inhibition) at 1uM |
| --- | --- |
| CC1CCN(S(=O)(=O)c2ccccc2[N+](=O)[O-])CC1 | 7.88% |
| CN(Cc1cccc(F)c1)C(=O)c1ccc(S(=O)(=O)C(F)F)cc1 | -4.26% |
| Cc1c(C(=O)OCCOC(C)C)[nH]c2c1C(=O)CC(C)(C)C2 | 4.98% |
| CCOc1ccc(CNC2CCCc3ccccc32)cc1.O=C(O)C(=O)O (stereo not drawn) | -8.67% |
| O=C(NNC(=O)c1cc(OCC(F)(F)F)ccc1OCC(F)(F)F)c1cccc(C(F)(F)F)c1 | -4.84% |
| c1cn(CC2(Cn3ccnc3)COC2)cn1 | 5.69% |
| O=c1[nH]snc1-c1c(Cl)cccc1Cl | 18% |
| COc1ccc(CNC(=O)COC(=O)/C=C/c2ccco2)cc1 | -2.54% |
| CC(C)[C@H]1C(=O)N2CCC[C@H]2[C@]2(O)O[C@](NC(=O)[C@@H]3C=C4c5cccc6[nH]cc(c56)C[C@H]4N(C)C3)(C(C)C)C(=O)N12 | 5.51% |
| CCN(CC)S(=O)(=O)c1cc(NC(=O)Cc2ccsc2)ccc1C | 11.8% |
| c1cn(CCCNC2CCCCCCC2)cn1 | 15% |
| COc1ccc2c(c1)c(=O)oc1cc(O)ccc12 | 10.6% |
| COc1cccc([C@@H]2CC=C(C(=O)O)[C@H](c3ccc(F)cc3)N2S(=O)(=O)c2ccc(C)cc2)c1 | 9.65% |
| CC(c1ccc(F)cc1)n1c(-c2ccc3ccccc3n2)n[nH]c1=S (stereo not drawn) | 9.02% |
| COC(=O)c1ccc(NC(=O)CC2C(=O)N(c3ccc(C)cc3)C(=O)N2CC(C)C)cc1 (stereo not drawn) | 3.4% |
| COc1ccc(N(C(=O)c2snc(C(N)=O)c2N)C(C(=O)NCC2CCCO2)c2ccc(C)o2)cc1OC (stereo not drawn) | 10.6% |
| COc1ccccc1N1CCN(C(=O)C2CCCN(S(=O)(=O)c3ccc(C)cc3)C2)CC1 (stereo not drawn) | -4.08% |
| Fc1ccccc1-c1nc(-c2cnccc2C(F)(F)F)no1 | 13.4% |
| OC(CNCc1ccccc1Cl)C(F)(F)F (stereo not drawn) | 8.99% |
| Cc1ccc(/C=C2/C(=O)NC(=O)N(CC3CCCO3)C2=O)s1 (stereo not drawn) | -8.41% |
| COc1ccc(CCNC(=O)CCS(=O)(=O)c2ccc3c(c2)NC(=O)C(C)S3)cc1OC (stereo not drawn) | 12.6% |
| Cc1cccc(N2CCN(S(=O)(=O)c3c(C)noc3/C=C/N(C)C)CC2)c1C | 10.5% |
| CNCCCC1c2ccccc2C=Cc2ccccc21.Cl | 15.1% |
| CCc1sc(C(=O)Nc2cccnc2)cc1Br | 9.91% |
